Laboratory results from PubChem BioAssay AID686979 (National Center for Advancing Translational Sciences (NCATS), 2013).
Among all 420,000 compounds or so, about 50,000 (12%) were called active. The inconclusive results got no clear call from the source; some entries with a clear call stand among them for comparison. Calls follow the shape of the dose curve; as a rule, active = well fitted inhibition curve with a large enough effect; inconclusive = small, poorly fitted or top-dose-only effect; inactive = flat fitted curve, though single readings scatter. No potency is given beside an inconclusive call; the fits are too rough.
% is scaled to controls: 0 for no effect and ±100 for the full control effect; potency is read from the fitted curve at half-maximal effect; tags tell the direction and shape of the fitted curve.

Assay: qHTS for Inhibitors of human tyrosyl-DNA phosphodiesterase 1 (TDP1): qHTS in cells in presence of CPT; also: nearly all actives have a fitted effect of over 55% in size
Details: chicken DT40 Tdp1-/-;hTDP1 cells + 20 nM CPT, ATP luminescence, 48 h; activity change, negative = growth inhibition: at 46.2 µM (top of the series) unless noted
Procedure, shortened: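 Chicken DT40 Tdp1-/- cells complemented with human TDP1, 400 cells/well, exposed to compounds plus 20 nM camptothecin for at least 48 h at 37 C; viability read as ATP content by CellTiter-Glo luminescence.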
In the case of CCn1c(SCC(=O)c2ccc(O)c(O)c2)nnc1-c1ccccc1OC, the Potency is reported as inconclusive [inhibitor, single point]. With C(=C\c1ccncc1)/c1ccncc1 the “activity change, negative = growth inhibition” value was inactive: -0.253%. For Cc1cc(C)n(-c2nnc(Nc3ccc(C)c(C)c3)c3ccccc23)n1, the Potency was inconclusive [inhibitor, single point]. With Nc1nc(-c2ccccc2)nc2nonc12 the “activity change, negative = growth inhibition” value was inactive: -0.715%. In the case of CCOc1ccccc1NC(=O)c1cccc(S(=O)(=O)N(Cc2ccccc2)c2ccccc2OC)c1, the Potency is reported as active: 20.6 µM. In the case of C[C@H]1O[C@H](O[C@H]2[C@H](O)[C@@H](O)[C@@H](O[C@H]3[C@H](O)[C@@H](O)[C@H](O)O[C@@H]3CO)O[C@@H]2CO)[C@H](O)[C@@H](O)[C@@H]1N[C@H]1C=C(CO)[C@@H](O)[C@H](O)[C@H]1O, the “activity change, negative = growth inhibition” value is reported as inactive: 9.02%. For O=C(CSc1nc(C2CCCCC2)nc2ccccc12)NCc1ccco1, the Potency was inconclusive [inhibitor, single point]. With C[C@H](O)[C@@H]1CN2CCc3c([nH]c4ccccc34)[C@@H]2C[C@@H]1N(C)C(=O)Nc1ccc(F)cc1 the activity change, negative = growth inhibition was inconclusive: -30.8% [inhibitor]. For CC1(C(=O)Nc2ccc(Cl)c(C(F)(F)F)c2)Cc2c(-c3ccc4c(c3)OCO4)ccnc2O1 (configuration not stated), the Potency was inconclusive [inhibitor, single point]. With O=[N+]([O-])c1cc(S(=O)(=O)Nc2ccccc2)ccc1N1CCN(c2ccccc2)CC1 the Potency was inconclusive [inhibitor, single point]. With CCOP(=O)(Nc1ccc2oc(=O)c3ccccc3c2c1)OCC the Potency was inconclusive [inhibitor, single point]. With Cc1ccccc1NC(=S)NC(NC(=O)c1ccccc1C)C(Cl)(Cl)Cl (configuration not stated) the Potency was inconclusive [inhibitor, single point]. With O=C(CC1SC(N2CCCC2)=NC1=O)Nc1ccc(C(=O)NCc2ccccc2F)cc1 (configuration not stated) the “activity change, negative = growth inhibition” value was inactive: -1.54%. In the case of CC(=O)Nc1ccc(S(=O)(=O)N2CCN(C(C)CCc3ccccc3)CC2)cc1 (configuration not stated), the Potency is reported as inconclusive [inhibitor, partial curve, poor fit]. In the case of O=C(c1ccco1)c1nnn(Cc2ccccc2)c1-c1ccccc1, the Potency is reported as inconclusive [inhibitor, partial curve, poor fit]. For O=S1(=O)[C@H]2C[C@@H]3C=C[C@@]2(CN1Cc1cccc(Cl)c1)O3, the Potency was inconclusive [inhibitor, single point]. In the case of CN1CCN(C(=S)c2cn(Cc3ccc(Br)cc3)c3ccccc23)CC1, the Potency is reported as active: 20.6 µM.
